# Results from PubChem BioAssay AID463173 (ICCB-Longwood Screening Facility, Harvard Medical School, 2010).
# Among all 52,000 compounds or so, about 1,700 (3.3%) were called active. Rule as the data show it: active = survival mostly below about 52% (no sharp cut-off); inactive = mostly above about 56%. This is one part of the list.
# Test system: Wild type
# Experiment: S. aureus survival, RN4220 and DeltatarO strains – OD600, teichoic acid synthesis inhibitors, primary screen (AID 463173)
# Details: S. aureus RN4220 wild type/DeltatarO growth, OD600, 18 h, hits give low values, screened at 18.75 µg/mL (by protocol)
row,SMILES,survival
1,Cc1cc2c(n1-c1ccc(C(=O)NCC(C)c3ccccc3)cc1)CCCC2 (stereo not given),inactive: 77%
2,CCOc1ccc(CNC(=O)c2ccc3c(c2)sc2nc(-c4ccc(OC)cc4)cn23)cc1,inactive: 103%
3,COc1cc(OC)c(NC(=O)CSC2=Nc3ccccc3N=C(c3ccc(F)cc3)C2)cc1Cl,inactive: 65%
4,Cc1ccc(-c2nn(-c3cccc([N+](=O)[O-])c3)c3c2cnc2ccc(F)cc23)cc1,inactive: 63%
5,Cc1sc(C2C(C#N)=C(N)N(c3cccc(Cl)c3)C3=C2C(=O)CCC3)cc1CN1CCOCC1 (stereo not given),inactive: 101%
6,Cc1ccc(CNC(=O)c2cc(S(=O)(=O)N3CCCC(C)C3)cn2C)cc1 (stereo not given),inactive: 128%
7,CCN(CCCNC(=O)c1ccc(Sc2ccc(C)cc2)c(NC(C)=O)c1)c1cccc(C)c1,inactive: 71%
8,COc1ccc(-n2c(=O)c3c(c4cc(OC)ccc4n3C)n(CC(=O)NCC3CCCO3)c2=O)cc1 (stereo not given),inactive: 83%
9,COc1ccc(-c2n[nH]c3c2C(c2ccc(Cl)cc2Cl)NC3=O)cc1 (stereo not given),active: 0%
10,CC(CCO)Nc1nc2c(c(=O)n(C)c(=O)n2C)n1Cc1ccc(Br)cc1 (stereo not given),inactive: 133%
11,Cc1ccc(F)cc1NC(=O)CCc1c(C)nn(-c2ccc(N3CCCCC3)nn2)c1C,inactive: 66%
12,CCOc1cccc(C(=O)Nc2ccc3oc(-c4ccc(C(C)(C)C)cc4)nc3c2)c1,inactive: 60%
13,COc1ccc(NC(=O)Cn2c(=O)n(-c3cccc(C)c3)c(=O)c3c2c2cc(C)ccc2n3C)cc1OC,inactive: 85%
14,Cc1ccc2oc(-c3ccc(C)c(NC(=O)c4ccc5c(c4)OCCO5)c3)nc2c1,inactive: 77%
15,Cc1ccc(S(=O)(=O)Nc2ccc(-c3ccc(N4CCCCCC4)nn3)cc2)cc1C,inactive: 131%
16,C=CCNC(=O)c1c(O)c2cccc3c2n(c1=O)CCC3,inactive: 102%
17,C#CCSc1nc2sc3c(c2c(=O)n1-c1cccc(OC)c1)CCN(C(C)=O)C3,inactive: 58%
18,CC(C(=O)O)N1C(=O)NC2NC(=O)NC21 (stereo not given),inactive: 107%
19,CCc1nn2c(-c3ccco3)ccnc2c1-c1ccc(F)cc1,inactive: 71%
20,CCOC(=O)c1ccc(-c2ccc(/C=C(\C#N)C(=O)Nc3c(C)cccc3Cl)o2)cc1,inactive: 83%
21,COc1cc(Cl)c(NC(=O)c2cc(S(=O)(=O)N3CCOCC3)cn2C)c(OC)c1,inactive: 71%
22,CCOC(=O)C(C)ON1C(=O)c2ccccc2C1=O (stereo not given),inactive: 96%
23,FC(F)(F)COc1nc(OCC(F)(F)F)nc(N(c2ccccc2)c2ccccc2)n1,inactive: 121%

row,SMILES,survival
1,CC1CCN(c2ccc(-c3cccc(NS(=O)(=O)c4ccc(Cl)s4)c3)nn2)CC1,inactive: 71%
2,COCCn1c(SCC(=O)c2ccc(OC)cc2)nc2cc(C(=O)NC3CCCC3)ccc2c1=O,inactive: 83%
3,CCCOc1ccc(-c2nonc2NC(=O)COc2ccc(C)cc2)cc1OCCC,inactive: 116%
4,CC(C)(C)NC(=O)Cn1cc(S(=O)(=O)Cc2ccc(F)cc2)c2ccccc21,inactive: 76%
5,CC(=O)c1c(C)oc2c(Cl)cc(NS(=O)(=O)c3cc(C)c(C)cc3C)cc12,inactive: 143%
6,CCOC(=O)CNC(c1ccccc1)c1cc(Br)ccc1NC(=O)c1ccc(Cl)cc1 (stereo not given),inactive: 69%
7,Cc1ccc(S(=O)(=O)c2nnn(CC(=O)Nc3ccccc3C)c2N)cc1C,inactive: 92%
8,CCC(=O)Nc1ccc2nc(SCCOc3cccc(C)c3)sc2c1,inactive: 116%
9,CCCCSCc1ccc(C(=O)O)o1,inactive: 104%
10,O=C(CCC1N=C2c3ccccc3N=C(SCc3ccccc3Cl)N2C1=O)NCc1cccs1 (stereo not given),inactive: 71%
11,O=C(NCc1ccccc1F)C(=O)NCC(c1cccs1)S(=O)(=O)c1cccs1 (stereo not given),inactive: 73%
12,CC(C)Cc1ccc(S(=O)(=O)Nc2ccc3[nH]c(=O)[nH]c3c2)cc1,inactive: 92%
13,CCOc1ccc(OCC)c(NC(=O)c2cnc3c(-c4ccccc4)c(C)nn3c2C)c1,inactive: 63%
14,O=c1c2oc3ccccc3c2n(Cc2cccc(Cl)c2)c(=O)n1Cc1ccc2c(c1)OCO2,inactive: 92%
15,COC(=O)c1cc2oc(C)cc2n1Cc1cccc(Cl)c1,active: -2%
16,Cc1ccc(-n2c(=O)c3c(c4cc(C)ccc4n3C)n(CC(=O)NCCC3=CCCCC3)c2=O)cc1,inactive: 66%
17,O=C(NCc1cccc(Cl)c1)c1ccc(CS(=O)Cc2ccccc2Cl)o1 (stereo not given),inactive: 65%
18,FC(F)(F)c1nnc2c3ccccc3nc(-c3ccccc3)n12,inactive: 50%
19,COc1ccccc1OCC(=O)NCC1(N2CCOCC2)CCCCC1,inactive: 87%
20,O=C(NC1CCN(C(=O)NCc2ccccc2)CC1)c1ccco1,inactive: 107%
21,Cc1nc(C)c(CCNS(=O)(=O)c2ccc(C)c(C)c2)s1,inactive: 99%
22,CCOc1ccccc1NC(=O)c1c(NCc2ccc(C)o2)sc2c1CCCCC2,inactive: 66%
